From paper PMC4336329 (PLoS ONE, 2015) come the findings set out here.

Among all 310,000 compounds or so, about 14,000 (4.5%) showed an effect of 50% or more. Effects have a minus sign here. This is one part of the list.
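Further: peak tail current of the secondary pulse compared with the same well before compound.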

In the assay the target is human ether-à-go-go-related gene (hERG) potassium channel (human, UniProt Q12809). In words: primary screen, population patch clamp on CHO cells stably expressing hERG.
Chain of human ether-à-go-go-related gene (hERG) potassium channel (Q12809 whole entry, looked up): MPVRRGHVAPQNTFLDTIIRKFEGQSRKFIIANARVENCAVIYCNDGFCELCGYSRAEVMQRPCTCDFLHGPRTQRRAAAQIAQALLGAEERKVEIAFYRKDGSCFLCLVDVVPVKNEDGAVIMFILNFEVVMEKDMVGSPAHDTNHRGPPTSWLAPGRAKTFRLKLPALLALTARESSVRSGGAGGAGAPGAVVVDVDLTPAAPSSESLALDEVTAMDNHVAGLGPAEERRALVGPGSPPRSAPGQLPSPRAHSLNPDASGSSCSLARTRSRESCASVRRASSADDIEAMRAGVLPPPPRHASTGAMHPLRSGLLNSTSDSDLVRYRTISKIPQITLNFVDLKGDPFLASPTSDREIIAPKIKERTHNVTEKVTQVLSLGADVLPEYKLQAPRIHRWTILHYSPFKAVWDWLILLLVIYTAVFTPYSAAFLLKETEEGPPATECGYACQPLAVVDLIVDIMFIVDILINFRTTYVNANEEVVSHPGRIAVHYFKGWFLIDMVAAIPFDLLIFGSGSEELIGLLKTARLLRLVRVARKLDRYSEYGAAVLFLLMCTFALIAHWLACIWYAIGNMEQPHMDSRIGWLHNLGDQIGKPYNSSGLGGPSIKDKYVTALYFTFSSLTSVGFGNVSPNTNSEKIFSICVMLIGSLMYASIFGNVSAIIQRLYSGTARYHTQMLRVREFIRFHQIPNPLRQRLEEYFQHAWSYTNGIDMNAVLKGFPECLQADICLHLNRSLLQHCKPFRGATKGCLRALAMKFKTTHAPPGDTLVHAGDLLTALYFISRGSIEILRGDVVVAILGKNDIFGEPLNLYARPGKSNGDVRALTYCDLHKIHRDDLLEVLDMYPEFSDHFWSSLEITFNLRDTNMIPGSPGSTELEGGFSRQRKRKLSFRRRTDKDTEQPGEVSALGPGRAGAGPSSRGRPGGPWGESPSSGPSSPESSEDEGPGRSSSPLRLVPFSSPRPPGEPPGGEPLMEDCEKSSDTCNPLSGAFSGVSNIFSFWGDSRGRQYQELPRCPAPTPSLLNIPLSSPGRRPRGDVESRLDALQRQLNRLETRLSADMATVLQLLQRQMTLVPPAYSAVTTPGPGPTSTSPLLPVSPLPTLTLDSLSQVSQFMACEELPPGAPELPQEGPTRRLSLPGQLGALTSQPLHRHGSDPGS
Turning to `Cc1nn(CCCC(=O)NCCCN2CCN(C)CC2)c(=O)c2c1sc1ccccc12`, the “hERG current change (%, negative = inhibition) at 10uM” value is 17.5%.

`COCc1ccc(-c2c(-c3cc(OC)cc(OC)c3)oc(=O)c3cc(OC)c(OC)cc23)cc1`: the “hERG current change (%, negative = inhibition) at 10uM” value was 3.27%.

On to `O=C(/C=C/c1ccc2c(c1)OCCO2)N1CCN(c2ccc(F)cc2)CC1`, for which the “hERG current change (%, negative = inhibition) at 10uM” value is reported as 9.55%.

In the case of `CN1CCc2c(sc3c2C(=O)NC(/C=C\c2ccccc2)N3)C1` (stereo not shown), the “hERG current change (%, negative = inhibition) at 10uM” value is given as -58.6%.

`CCn1ccnc1CNC(=O)c1ccc(OC2CCN(C(=O)COC)CC2)cc1`: the “hERG current change (%, negative = inhibition) at 10uM” value came to 15.2%.

In the case of `Cc1ccc(NC2CCCN(C(=O)C3CCCC3)C2)cc1C` (stereo not shown), the “hERG current change (%, negative = inhibition) at 10uM” value is on record as 11.3%.

As to `O=c1c2cn[nH]c2nc(SCc2ccccc2F)n1-c1ccc(Br)cc1`, the “hERG current change (%, negative = inhibition) at 10uM” value is on record as -24.2%.

Take `COc1ccccc1CNC(=O)CCNS(=O)(=O)c1ccc2[nH]c(=O)oc2c1`: the “hERG current change (%, negative = inhibition) at 10uM” value stood at 11.3%.

In the case of `CCCCOC(=O)Nc1nnc(Cc2ccc(Cl)cc2)s1`, the “hERG current change (%, negative = inhibition) at 10uM” value is listed as 15.5%.

`CCN(CC(=O)Nc1sc2c(c1C#N)CCCC2)Cc1nc2ccccc2c(=O)[nH]1`: the “hERG current change (%, negative = inhibition) at 10uM” value is given as -8.12%.

`Fc1ccc2c(c1)C(c1ccc(N3CCOCC3)cc1)=NNC(c1cccs1)=N2`: the “hERG current change (%, negative = inhibition) at 10uM” value is recorded as -1.96%.

On to `Nc1nc(SCc2nc3scc(-c4cccs4)c3c(=O)[nH]2)n[nH]1`, for which the “hERG current change (%, negative = inhibition) at 10uM” value was 18.9%.

In the case of `O=C(Nc1nc(-c2ccco2)c(-c2ccco2)s1)c1cnccn1`, the “hERG current change (%, negative = inhibition) at 10uM” value was determined as 3.8%.

Turning to `CCCCn1nnnc1SCC(=O)NCc1ccco1`, the “hERG current change (%, negative = inhibition) at 10uM” value is listed as 10.6%.

With `COc1ccc(NC(=O)c2coc3ccccc23)cc1OC`, the “hERG current change (%, negative = inhibition) at 10uM” value is 6.21%.

Turning to `CN(c1ccccc1)S(=O)(=O)c1ccc(C(=O)OCC(=O)NCc2ccco2)cc1`, the “hERG current change (%, negative = inhibition) at 10uM” value is listed as -12.2%.

With `C#Cc1ccc([C@@H]2C=C(C(=O)OCC=C)O[C@H](OCc3ccc(CO)cc3)C2)cc1`, the “hERG current change (%, negative = inhibition) at 10uM” value is reported as -7.01%.

`Nc1[nH]c(N=NC(=O)c2ccccc2)c2ccccc12`: the “hERG current change (%, negative = inhibition) at 10uM” value was -3.09%.

On to `CCCOC(=O)c1ccc(NC(=O)C2C3C=CC(O3)C2C(=O)O)cc1` (stereo not shown), for which the “hERG current change (%, negative = inhibition) at 10uM” value turned out to be 15.9%.

On to `Cc1ccc(S(=O)(=O)N2CCCC2)cc1C(=O)O`, for which the “hERG current change (%, negative = inhibition) at 10uM” value is recorded as 16.2%.

As to `Cc1c(NC(=S)/C=C2\N(C)c3ccccc3C2(C)C)c(=O)n(-c2ccccc2)n1C`, the “hERG current change (%, negative = inhibition) at 10uM” value is recorded as 0.171%.

In the case of `CCN(Cc1ccccc1)S(=O)(=O)c1c(C)n(C)c(=O)n(C)c1=O`, the “hERG current change (%, negative = inhibition) at 10uM” value is listed as -18.8%.

As for `C=CCN(c1ccc(C(=O)Nc2ccc3c(c2)n(C)c(=O)n3C)cc1)S(C)(=O)=O`, the “hERG current change (%, negative = inhibition) at 10uM” value came out at 15.7%.

As to `CC(C)(C)C(=O)N1CCN(c2ncnc3scc(-c4ccccc4)c23)CC1`, the “hERG current change (%, negative = inhibition) at 10uM” value is -30%.

`O=C(NCc1ccccc1)c1ccco1`: the “hERG current change (%, negative = inhibition) at 10uM” value came to 2.34%.

Consider `COc1ccc(CN2CCNC(=O)C2CC(=O)N(C)CCC2CCOCC2)c(OC)c1` (stereo not shown), for which the “hERG current change (%, negative = inhibition) at 10uM” value was 8%.

With `O=C(Nc1cccnc1)c1ccc(COCC(F)(F)F)cc1`, the “hERG current change (%, negative = inhibition) at 10uM” value is 7.03%.

Regarding `C=CCn1c(N)c(C(=O)N2CCN(C)CC2)sc1=S`, the “hERG current change (%, negative = inhibition) at 10uM” value was -22.1%.

On to `C#CCNC(=O)C1=C[C@@H](c2coc3ccccc3c2=O)C[C@@H](OCCCCO)O1`, for which the “hERG current change (%, negative = inhibition) at 10uM” value is reported as 1.71%.

Turning to `CCC1CCCCN1CCCNC(=O)CNC(=O)Cn1ccc2ccccc2c1=O` (stereo not shown), the “hERG current change (%, negative = inhibition) at 10uM” value is listed as 12.3%.

Regarding `CNC(=O)[C@H]1O[C@@H](n2cnc3c(NCc4cccc(I)c4)nc(Cl)nc32)[C@H](O)[C@@H]1O`, the “hERG current change (%, negative = inhibition) at 10uM” value is reported as 1.58%.

`COc1cccc2c1cc1c(=O)n(CC(=O)N3CCCCCC3)nc(C)n12`: the “hERG current change (%, negative = inhibition) at 10uM” value is given as -2.48%.

As to `CCOc1cc2[nH]c(=S)n(Cc3ccc(C)o3)c(=O)c2cc1OCC`, the “hERG current change (%, negative = inhibition) at 10uM” value is reported as -4.12%.

With `O=C(CSc1nnnn1-c1ccc2c(c1)CCC2)NCc1cccs1`, the “hERG current change (%, negative = inhibition) at 10uM” value was -3.81%.

As for `Cn1ncc2c(O/N=C(\N)c3ccc(C(F)(F)F)cc3)ncnc21`, the “hERG current change (%, negative = inhibition) at 10uM” value is on record as -6.44%.

On to `CCOc1ccc(S(=O)(=O)N2CCc3ccccc3C2)cc1`, for which the “hERG current change (%, negative = inhibition) at 10uM” value is 9.5%.

Turning to `O=C(c1cnc2c(c1)COc1ccc(Cl)cc1-2)c1ccccc1O`, the “hERG current change (%, negative = inhibition) at 10uM” value is given as -16.7%.

Take `O=c1cc(CN2CCN(c3ccc(O)cc3)CC2)nc2scc(-c3ccccc3)n12`: the “hERG current change (%, negative = inhibition) at 10uM” value was determined as 5.58%.

`CCOc1nc(OCC)c2cnn(C)c2n1`: the “hERG current change (%, negative = inhibition) at 10uM” value stood at 15.8%.

In the case of `CCCCNC(=S)Nc1ccc(-c2nc3ccc(C)cc3s2)cc1`, the “hERG current change (%, negative = inhibition) at 10uM” value amounted to 8.59%.

As to `CCOc1cc2c(cc1OC)C(c1cccc([N+](=O)[O-])c1)NCC2` (stereo not shown), the “hERG current change (%, negative = inhibition) at 10uM” value was -19.8%.

As to `Cc1ccc(-n2c(C)cc(/C=N/NC(=O)CN(c3ccc(C)cc3C)S(C)(=O)=O)c2C)cc1`, the “hERG current change (%, negative = inhibition) at 10uM” value was determined as 6.39%.

As for `Fc1cccc(CNC2CCN(CCc3ccccc3)CC2)c1`, the “hERG current change (%, negative = inhibition) at 10uM” value is reported as -42.8%.

In the case of `CCOc1c(Cl)cc(CNCC(C)C)cc1OC.Cl`, the “hERG current change (%, negative = inhibition) at 10uM” value is reported as -6.91%.

`CN(C)c1ccc(C(=S)N2CCCCC2)cc1`: the “hERG current change (%, negative = inhibition) at 10uM” value is on record as 8.24%.

Take `CCN(CC)C(=O)c1ccc(NS(=O)(=O)c2ccccc2)cc1`: the “hERG current change (%, negative = inhibition) at 10uM” value came to 7.4%.

Regarding `Cc1ccc(S(=O)(=O)NC(CC(=O)O)c2cccs2)cc1` (stereo not shown), the “hERG current change (%, negative = inhibition) at 10uM” value is listed as 14.8%.

For the molecule `COc1ccc(C(=O)NC(=S)N2CC(C)OC(C)C2)cc1` (stereo not shown), the “hERG current change (%, negative = inhibition) at 10uM” value was found to be 6%.

As for `COC(=O)C1CCN(C(=O)COC(=O)Cn2cnnn2)CC1`, the “hERG current change (%, negative = inhibition) at 10uM” value is 23.3%.

`Cc1ccc(/C=N\NC(=O)Cc2cccn2C)o1`: the “hERG current change (%, negative = inhibition) at 10uM” value is reported as 23.7%.

Consider `CN(C)/C=N/c1cc(=O)n(C)c(=O)n1CC1CC1`, for which the “hERG current change (%, negative = inhibition) at 10uM” value is given as 12%.

For `O=C(CSc1ncn[nH]1)c1cccc([N+](=O)[O-])c1`, the “hERG current change (%, negative = inhibition) at 10uM” value turned out to be 14.3%.

For `CCOC(=O)N1CCN(CC(=O)Nc2sccc2C#N)CC1`, the “hERG current change (%, negative = inhibition) at 10uM” value was -24.9%.

For the molecule `O=C(Nc1nccs1)C1C2/C=C\CCCCC21` (stereo not shown), the “hERG current change (%, negative = inhibition) at 10uM” value is 6.31%.

On to `O=C(CN1CCCCCC1)N1c2ccccc2Sc2ccccc21`, for which the “hERG current change (%, negative = inhibition) at 10uM” value was -19.2%.

As to `CC(C)N(Cc1ccccc1)C(=O)COC(=O)c1ccc(O)cc1`, the “hERG current change (%, negative = inhibition) at 10uM” value was found to be 0.537%.

`Cn1c(N)c(C(=O)Nc2ccc3ccccc3c2)sc1=S`: the “hERG current change (%, negative = inhibition) at 10uM” value turned out to be 1.24%.

For the molecule `C[C@@]1([C@@H](NC(=O)c2cccs2)c2ccc(-c3ccccc3)cc2)C[C@H]1C1CCCCC1`, the “hERG current change (%, negative = inhibition) at 10uM” value was 13.5%.
